According to ChEMBL document CHEMBL4888484, “Replenishing the malaria drug discovery pipeline: Screening and hit evaluation of the MMV Hit Generation Library 1 (HGL1) against asexual blood stage Plasmodium falciparum ,using a nano luciferase reporter read-out” (2022):
Where “and” joins values, the source holds several entries; their conditions need not be identical. Equal values may be shown once. Among all 150,000 compounds or so, about 540 (0.36%) showed an effect of 50% or more. Some of the results follow.

Tested on: Plasmodium falciparum
Assay: Primary screen in NF54 nanoGlo assay, in single point, at 2uM, 72h; a lower Z score goes with more inhibition
Type: functional, Erythrocyte
Settings: timepoint 72 hour

## O=C(Cc1cccc(Cl)c1)N1CC[C@@]2(CO)CN(Cc3ccccc3)C[C@H]2C1
  % Inhibition: -5%
  Z score: 0.54

## COCCn1c(C)cnc1[C@H]1CCN(C(=O)C(C)C)C1
  % Inhibition: 1%
  Z score: -0.1

## O=C(CC1(O)CCCC1)N1CCC(Cc2ccccc2)CC1
  % Inhibition: 7%
  Z score: -1.17

## O=C(O)C[C@@H]1CCN(S(=O)(=O)c2ccccc2)C[C@@H]1Cc1nc2cccc(Cl)c2[nH]1
  % Inhibition: 6%
  Z score: -0.72

## COc1ccc(OC)c2sc(NC(=O)c3cc(C)oc3C)nc12
  % Inhibition: -5%
  Z score: 0.78

## COCC(C)(C)CNc1cc2nncn2c(N)n1
  % Inhibition: -7%
  Z score: 1.01

## NC(=NOCCC1OCCO1)C1CCCCCC1
  % Inhibition: 7%
  Z score: -0.87

## O[C@]12CCNC[C@H]1CN(Cc1cc(F)ccc1C(F)(F)F)CC2
  % Inhibition: -6%
  Z score: 1.07

## COc1ccc(C(=O)NCc2c(C(F)(F)F)nn(C)c2Oc2ccccc2)cc1
  % Inhibition: -7%
  Z score: 1.03

## Cc1cc(Br)ccc1NS(=O)(=O)N(C)C
  % Inhibition: -11%
  Z score: 2.2

## O=C(C[C@@H]1NC(=O)N(Cc2ccco2)C1=O)N1CCN(c2ccccc2)CC1
  % Inhibition: 1%
  Z score: -0.19

## CCOc1ccc(NC(=O)c2c(C)oc3ncn(Cc4ccc(F)cc4)c(=O)c23)cc1
  % Inhibition: -11%
  Z score: 1.53

## CCC(CC)S(=O)(=O)CC(=O)NCc1ccc(Cl)s1
  % Inhibition: -13%
  Z score: 1.27

## CCC1(C)CN(C(=O)c2nc3cnccc3s2)C1
  % Inhibition: 9%
  Z score: -0.87

## CC(C)[C@H](NC(N)=O)C(=O)NCc1ccccc1
  % Inhibition: 3%
  Z score: -0.49

## Cc1[nH]ncc1CNC(=O)CC1(N2Cc3ccccc3C2=O)CCC(C(C)(C)C)CC1 (configuration not stated)
  % Inhibition: 2%
  Z score: -0.2

## Brc1cnccc1-c1cncnc1
  % Inhibition: -11%
  Z score: 1.69

## COc1ccc(C(=O)N2C[C@H](c3nnc(C(C)C)o3)C3(CCN(C)CC3)C2)c(C)c1
  % Inhibition: -4%
  Z score: 0.71

## COC(=O)c1cnc(N2CCN(c3ccc(O)cc3)CC2)c(S(=O)(=O)N2CCOCC2)c1
  % Inhibition: -6%
  Z score: 1.21

## CC(C)(C)N(CCS(C)(=O)=O)C(=O)c1cccc(-c2ccoc2)c1
  % Inhibition: 2%
  Z score: -0.18

## CCn1cc(C(=O)NCc2snnc2C)cn1
  % Inhibition: -8%
  Z score: 1.1

## CNC(=O)c1ccc(CNCC(=O)NC2CCCCCCC2)cc1
  % Inhibition: -7%
  Z score: 1.1

## C=C[C@](C)(CC)C(=O)Nc1n[nH]cc1Br
  % Inhibition: 35%
  Z score: -3.91

## OC[C@H]1COCCN1Cc1c(Cl)oc2ccccc12
  % Inhibition: -10%
  Z score: 0.95

## CC(C)c1nc([C@H](C)Nc2ncnc3[nH]ncc23)cs1
  % Inhibition: -4%
  Z score: 0.39

## O=C(NCC1(c2cccc(F)c2)CCCCC1)c1cncs1
  % Inhibition: 1%
  Z score: -0.06

## Cc1ccc(C(=O)N[C@H]2CCOC[C@@H]2OCc2c(C)noc2C)c(=O)[nH]1
  % Inhibition: -10%
  Z score: 2

## Cc1cccc(-c2nsc3c(=O)n(CC(=O)Nc4ccc(Br)cc4)cnc23)c1
  % Inhibition: -4%
  Z score: 0.77

## COc1ccc([N+]2=C3CCCCN3C[C@]2(O)c2ccc(Cl)cc2)cc1
2 µM
  % Inhibition: 3% and -11%

## CNS(=O)(=O)CCn1ccnc1-c1ccc(-c2cc[nH]n2)o1
  % Inhibition: -11%
  Z score: 1.12

## CC(C)c1ccc2nc(-c3ccc(CN4C(=O)CNC4=O)cc3)[nH]c(=O)c2c1
  % Inhibition: -10%
  Z score: 1.09

## Cc1nc(N2CCOCC2)c2scc(-c3ccccc3)c2n1
  % Inhibition: -11%
  Z score: 1.48

## COCC(=O)N(Cc1c(C)nn(-c2ccccc2)c1Oc1ccc(F)cc1F)C[C@H]1CCCO1
  % Inhibition: 6%
  Z score: -0.63

## O=C(CN(C[C@H]1CCCO1)c1ncnc2ccsc12)N1CCCC1
  % Inhibition: -10%
  Z score: 1.09

## CCOC(=O)Cc1csc(NC(=O)c2nc(C)sc2C)n1
  % Inhibition: -20%
  Z score: 2.43

## Cc1cc(-c2csc(NC(=O)Cc3c(F)c(F)c(F)c(F)c3F)n2)c(C)s1
  % Inhibition: 1%
  Z score: -0.08

## Cc1ccc(-c2nc(-c3ccncc3)no2)cn1
  % Inhibition: -17%
  Z score: 1.96

## Cc1c(CCNC(=O)NCCNS(C)(=O)=O)c2cccc3c2n1CCC3
  % Inhibition: -9%
  Z score: 1.83

## CCc1nc(-c2ccccc2)nc(N2CCN(C(=O)c3ccco3)CC2)c1Cc1cccc(C)c1
  % Inhibition: -16%
  Z score: 2.37

## Cc1ccc(CNC(=O)C(=O)NC2CC2)cc1
  % Inhibition: -7%
  Z score: 0.99

## COc1ccc(NS(=O)(=O)c2ccc(-c3nnc(C4CCCC4)o3)o2)cc1
  % Inhibition: -10%
  Z score: 1.28

## Cn1ncc2c1CN(S(=O)(=O)c1cc(F)cc(Cl)c1)C2
  % Inhibition: 7%
  Z score: -0.89

## Cc1nn(C)c2nc(O[C@@H](C)C(=O)N3CCc4ccccc43)cc(-c3ccccc3)c12
  % Inhibition: -2%
  Z score: 0.27

## c1cc(-c2ccc(NC3CCCC3)nn2)n[nH]1
  % Inhibition: -15%
  Z score: 2.87

## COc1ccc([C@H]2CC(O)=Nc3nc(N4CCCCC4)sc32)cc1OCC(N)=O
  % Inhibition: -5%
  Z score: 0.57

## CN(C)c1ccc(NC(=O)C(C2CC=CCC2)N(Cc2nc(-c3ccccc3)cs2)C(=O)Cn2nnc3ccccc32)cc1 (configuration not stated)
  % Inhibition: 40%
  Z score: -4.5

## Cc1cc(C)c2c(NC(=O)Cc3cccs3)nn(C)c2n1
  % Inhibition: -15%
  Z score: 1.88

## COCCCn1cnnc1CNS(=O)(=O)c1cccc2nn(C)nc12
  % Inhibition: -4%
  Z score: 0.61

## CC1=NO[C@@](C)(Cn2cc(Oc3ccccc3)c(=O)c(C(=O)O)c2)C1
  % Inhibition: -14%
  Z score: 1.86

## CN1CCN(C(=O)c2cccc3ccc(O)nc23)CC1(C)C
  % Inhibition: 6%
  Z score: -1.22

## CCn1cc(CCN2C(=O)C[C@]3(CCc4ccccc43)C2=O)cn1
  % Inhibition: -5%
  Z score: 0.99

## CCc1ccc(-c2cn3ccn(-c4ccc5c(c4)CCC5)c(=O)c3n2)cc1
  % Inhibition: 5%
  Z score: -0.68

## Cc1nc(CCN)n(-c2cccc3ccccc23)n1
  % Inhibition: -5%
  Z score: 0.98

## CN(C)S(=O)(=O)N(CCN1CCCC1)[C@H]1CCN(C(=O)Nc2cc(F)ccc2F)C1
  % Inhibition: -10%
  Z score: 1.3

## Cc1nc(CN2CCc3[nH]c4c(Cl)cccc4c3C2)c[nH]1
  % Inhibition: 9%
  Z score: -1.74

## CCCOC(=O)N[C@@H](CC)COC(=O)Nc1cccc(C)c1C
  % Inhibition: -10%
  Z score: 1.34

## OC1(Cc2nc(-c3ccsc3)no2)CCCCC1
  % Inhibition: -10%
  Z score: 1.53

## NC(=O)N1CCC[C@@H]1COC(=O)C1=CCCCCC1
  % Inhibition: 7%
  Z score: -0.83

## Cc1ccc(OC2CN(Cc3ccc(S(C)(=O)=O)cc3)C2)cc1
  % Inhibition: -2%
  Z score: 0.46

## c1ccc(Cn2c(C[n+]3ccccc3)nc3ccccc32)cc1
  % Inhibition: -2%
  Z score: 0.36

## CCn1nc(CC(N)=O)nc1COc1ccc(Cl)cc1C
  % Inhibition: 0%
  Z score: 0.05

## Cc1nc(C)c(CNc2ncncc2C(=O)O)s1
  % Inhibition: -5%
  Z score: 0.89

## CN(C)c1nsc(-c2ccc(C(=O)O)s2)n1
  % Inhibition: -5%
  Z score: 0.83

## O=C(C1CCC1)N1CCCc2cc(S(=O)(=O)N3CCCc4ccccc43)ccc21
  % Inhibition: -11%
  Z score: 1.35

## O=C(NCc1ccncc1)c1cn(C2CN(S(=O)(=O)Cc3ccccc3)C2)nn1
  % Inhibition: -9%
  Z score: 1.73

## Cc1ccccc1-n1ncc2c1CC(C)(C)C[C@@H]2NC(=O)CCc1scnc1C
  % Inhibition: -23%
  Z score: 2.05

## CN(C(=O)c1nn2c(c1Br)N[C@@H](c1ccc(Br)o1)C[C@H]2C(F)(F)F)C1CCCCC1
  % Inhibition: 4%
  Z score: -0.65

## CC1CC1c1nc(-c2cnccn2)no1 (configuration not stated)
  % Inhibition: -7%
  Z score: 0.79

## COc1ncc(CN2CCC[C@H](Cn3ccnc3C)C2)cn1
  % Inhibition: -6%
  Z score: 0.89

## Cc1ccc(Cl)c(OC(C)C(=O)N2C3CCC2CC(O)(Cc2ccc(F)cc2F)C3)c1 (configuration not stated)
  % Inhibition: 32%
  Z score: -0.36

## O=C1CC[C@@]2(CCCN(C(=O)N3CCCC3)C2)CN1CCc1c[nH]cn1
  % Inhibition: -1%
  Z score: 0.1

## Cc1ccc(-c2csc(NC(=O)C3C4C=CC(O4)C3C(=O)O)n2)cc1 (configuration not stated)
  % Inhibition: -15%
  Z score: 2.08

## CCC(=O)Nc1c(C)nc(N2CCN(C)CC2)nc1C
  % Inhibition: 0%
  Z score: -0.05

## O=C(c1[nH]nc(C2CC2)c1Br)N1CCCCC1
  % Inhibition: -3%
  Z score: 0.34

## COc1ccc(N2C[C@@H](C(=O)N(C)c3ncccc3F)CC2=O)cc1
  % Inhibition: 7%
  Z score: -0.95

## Cc1cc(C(=O)N2CCC[C@@](CO)(CC3CC3)C2)ccc1N1CCOCC1
  % Inhibition: -4%
  Z score: 0.59

## COCCCN1C(=O)C[C@](CC(=O)N(C)C(C2CC2)C2CC2)(c2ccccc2OC)C1=O
  % Inhibition: -9%
  Z score: 1.7

## CCC(C(=O)N1C[C@@H](OC)C[C@H]1CO)c1ccccc1 (some centres not stated)
  % Inhibition: 9%
  Z score: -1.73

## O=C(C1CCC1)N1CCS(=O)(=O)CC1
  % Inhibition: -12%
  Z score: 1.59

## Cc1ccc(NC(=O)N2CCC3(CC2)C(=O)N(CC(=O)N2CCCCC2)CN3c2ccccc2)cc1Cl
  % Inhibition: -11%
  Z score: 1.49

## COc1ccc(-n2nc(C3CC3)c3c(C(=O)O)cc(C(C)C)nc32)cc1
  % Inhibition: -39%
  Z score: 4.55

## COc1cccc(C2=Nc3cccnc3N(CC(=O)NCc3ccc(F)cc3)C(=O)C2)c1
  % Inhibition: -17%
  Z score: 2.69

## COc1ccccc1NC(=O)N1CCCCC2CCCCC21 (configuration not stated)
  % Inhibition: -12%
  Z score: 1.22

## Nc1c(C(=O)Nc2ccccc2)sc(=S)n1Cc1ccccc1
  % Inhibition: 6%
  Z score: -0.78
